Results on 43 compounds are retold here after PMC4336329 (PLoS ONE, 2015).

In all, about 310,000 compounds went through this assay and about 14,000 (4.5%) showed an effect of 50% or more. The effect is printed as a negative number. The list shows a part of the results.
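Note: peak tail current of the secondary pulse compared with the same well before compound.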

In the assay the target is human ether-à-go-go-related gene (hERG) potassium channel (human, UniProt Q12809). Description: primary screen, population patch clamp on CHO cells stably expressing hERG.
Chain of human ether-à-go-go-related gene (hERG) potassium channel (Q12809 whole entry, looked up): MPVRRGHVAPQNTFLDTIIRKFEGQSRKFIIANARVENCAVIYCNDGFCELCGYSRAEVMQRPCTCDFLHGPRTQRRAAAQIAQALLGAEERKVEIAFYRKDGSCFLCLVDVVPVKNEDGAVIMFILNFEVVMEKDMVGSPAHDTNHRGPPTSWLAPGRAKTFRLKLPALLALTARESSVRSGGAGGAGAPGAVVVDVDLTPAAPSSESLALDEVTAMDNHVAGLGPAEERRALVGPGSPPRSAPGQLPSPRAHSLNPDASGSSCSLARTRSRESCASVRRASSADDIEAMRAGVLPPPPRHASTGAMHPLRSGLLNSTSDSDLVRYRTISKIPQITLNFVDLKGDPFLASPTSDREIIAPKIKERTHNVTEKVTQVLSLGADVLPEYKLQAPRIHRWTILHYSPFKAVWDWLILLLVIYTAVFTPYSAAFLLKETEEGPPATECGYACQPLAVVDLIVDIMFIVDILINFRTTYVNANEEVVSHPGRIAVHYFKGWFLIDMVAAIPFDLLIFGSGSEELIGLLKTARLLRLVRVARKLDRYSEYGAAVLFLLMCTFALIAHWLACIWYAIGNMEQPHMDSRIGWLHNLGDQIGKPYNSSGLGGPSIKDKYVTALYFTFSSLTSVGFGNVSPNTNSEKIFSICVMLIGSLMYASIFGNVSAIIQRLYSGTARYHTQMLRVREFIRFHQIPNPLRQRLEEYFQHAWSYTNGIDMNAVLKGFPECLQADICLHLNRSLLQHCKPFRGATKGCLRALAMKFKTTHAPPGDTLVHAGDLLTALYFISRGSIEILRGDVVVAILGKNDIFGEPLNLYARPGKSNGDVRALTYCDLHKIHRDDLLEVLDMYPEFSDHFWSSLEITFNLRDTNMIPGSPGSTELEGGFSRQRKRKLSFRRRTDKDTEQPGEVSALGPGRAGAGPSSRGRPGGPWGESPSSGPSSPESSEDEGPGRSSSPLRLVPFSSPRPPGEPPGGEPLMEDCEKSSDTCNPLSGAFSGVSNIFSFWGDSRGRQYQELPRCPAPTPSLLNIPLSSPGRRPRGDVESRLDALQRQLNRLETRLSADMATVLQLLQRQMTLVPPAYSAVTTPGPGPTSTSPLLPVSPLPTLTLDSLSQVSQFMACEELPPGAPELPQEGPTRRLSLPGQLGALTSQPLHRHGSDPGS
Turning to `CC(NS(=O)(=O)c1ccc(Br)s1)c1ccccc1` (stereo not shown), the “hERG current change (%, negative = inhibition) at 10uM” value is reported as 8.81%. In the case of `CN(C)S(=O)(=O)c1ccc(Cl)c(C(=O)NCc2ccco2)c1` it was -2.3%; in that of `Clc1ccccc1/C=N/c1cc(-c2ccccc2)nn1-c1ccccc1`, 13.7%.

In the case of `O=C(Nc1ncc2c(n1)-c1ccccc1OC2)c1ccc(Cl)cc1Cl`, the “hERG current change (%, negative = inhibition) at 10uM” value was determined as 11.8%.

As to `CCN(CC)CCN(C(=O)c1ccc(N2C(=O)CCC2=O)cc1)c1nc2cc3c(cc2s1)OCCO3.Cl`, the “hERG current change (%, negative = inhibition) at 10uM” value is -27.6%. Turning to `Cc1nc2ccc(NC(=O)COc3ccccc3F)cc2s1`, the “hERG current change (%, negative = inhibition) at 10uM” value is given as 0.868%. In the case of `CC(=O)NN1C(=O)c2ccccc2NC1c1ccccc1O` (stereo not shown) it was 10.9%.

For the compound `CCN(CC)C(=O)c1ncn(Cc2ccccc2)c1C(=O)N(CC)CC`, the “hERG current change (%, negative = inhibition) at 10uM” value stood at 11.2%. In the case of `O=C(Oc1ccc(N2C(=O)CCC2=O)cc1)c1ccco1` it was 1.56%.

Consider `CSc1cccc(NC(=O)CNC(=O)c2ccc3c(c2)OCO3)c1`, for which the “hERG current change (%, negative = inhibition) at 10uM” value is reported as -16%. As to `COc1ccccc1NC(=O)N1CCCC(CNC(=O)c2ccccc2Cl)C1` (stereo not shown), the “hERG current change (%, negative = inhibition) at 10uM” value came out at 9.65%. The figure for `COc1ncccc1-c1nnn(-c2ccc(Cl)c(Cl)c2)n1` is 12.4%.

Regarding `Fc1ccc(C2=CC(c3cccs3)n3nnnc3N2)cc1` (stereo not shown), the “hERG current change (%, negative = inhibition) at 10uM” value turned out to be 20.3%.

For the compound `Cc1ccc(C)c(OCc2cc(C(=O)NC(c3ccccn3)C(F)(F)F)no2)c1` (stereo not shown), the “hERG current change (%, negative = inhibition) at 10uM” value was determined as 12.5%. The figure for `Cc1c(NC(NC(=O)CC(C)C)C(Cl)(Cl)Cl)c(=O)n(-c2ccccc2)n1C` (stereo not shown) is 9.87%; for `O=C(Cn1[nH]c(=O)c2ccccc2c1=O)OCC(=O)N(Cc1ccccc1)Cc1ccccc1` it is 4.4%; for `CS(=O)(=O)N(Cc1ccccc1)c1ccc(C(=O)Nc2ccc3c(c2)OCO3)cc1` it is 2.68%.

With `c1ccc(Cn2nnnc2C(c2cccs2)N2CCSCC2)cc1` (stereo not shown), the “hERG current change (%, negative = inhibition) at 10uM” value is on record as -7.67%. On to `O=c1[nH]nc(SCc2ccccc2)c(=O)[nH]1`, for which the “hERG current change (%, negative = inhibition) at 10uM” value is 4.95%. In the case of `COc1ccc(Cl)cc1NC(=O)CN(C)C(=O)c1sc2ccccc2c1Cl` it was 2.45%; in that of `O=C(C[n+]1ccccc1)N/N=C/c1ccc(F)cc1.[Cl-]`, 6.49%. The figure for `c1ccc(Nc2ccnc(Nc3ccccc3)n2)cc1` is -3.77%; for `O=C(Nc1cccnc1Cl)c1noc2c1CCc1ccccc1-2` it is 16.6%; for `O=C(NC(=S)Nc1ccc(NC(=O)c2cccs2)cc1)c1ccc([N+](=O)[O-])cc1` it is -25.9%. In the case of `CCC(=NCCc1ccccc1)c1c(O)[nH]c(=O)[nH]c1=O` it was 10.1%. For the compound `CCOC(=O)C1CCN(c2c(NCCN3CCCCC3C)c(=O)c2=O)CC1` (stereo not shown), the “hERG current change (%, negative = inhibition) at 10uM” value was -38.9%. In the case of `Nc1nc(Cl)cc(N2CCC(c3cc(-c4ccc(Cl)cc4)n[nH]3)CC2)n1` it was 9.57%; in that of `O=C(NCCc1ccccn1)C1CCN(S(=O)(=O)c2ccc(Cl)cc2)CC1`, -36.6%; in that of `Cc1nn(S(=O)(=O)c2ccccc2)c(C)c1Sc1ccc([N+](=O)[O-])cc1`, -6.26%. In the case of `CC(=O)Nc1cccc(C(=O)OC(C(=O)c2ccc(C)cc2)c2ccccc2)c1` (stereo not shown) it was 1.77%. As for `O=C(Cc1ccccc1)NC(NNc1ccccc1)(C(F)(F)F)C(F)(F)F`, the “hERG current change (%, negative = inhibition) at 10uM” value was determined as 15.2%. With `COc1cccc(NC(=O)CCCN2C(=O)C3CC=CCC3C2=O)c1` (stereo not shown), the “hERG current change (%, negative = inhibition) at 10uM” value is -2.79%. The figure for `COc1ccc(C(=O)N2CCN(CCCc3ccccc3)CC2)cc1OC.O=C(O)C(=O)O` is -73.3%.

As for `O=C1CC(Cc2ccc(Br)cc2)C(=O)N1c1ccccc1` (stereo not shown), the “hERG current change (%, negative = inhibition) at 10uM” value was -10.6%. With `CC1CN(C(=O)Nc2ccccc2)c2ccccc2-[n+]2ccsc21.[Br-]` (stereo not shown), the “hERG current change (%, negative = inhibition) at 10uM” value is given as 1.52%. The figure for `O=C(c1c(F)cccc1F)N1CCC(n2nnc3cc(C(F)(F)F)ccc32)CC1` is -21.4%. Turning to `Cc1cc(C)c(S(=O)(=O)Cc2ccccc2)c(Cl)n1`, the “hERG current change (%, negative = inhibition) at 10uM” value is listed as 11.5%. As to `COc1ccc(-c2ncncc2-c2csc(C)n2)c(O)c1OC`, the “hERG current change (%, negative = inhibition) at 10uM” value is listed as 2.21%. The figure for `COc1cc(OC)cc(C(=O)NC2CCCN(Cc3ccc(Cl)cc3)C2)c1` (stereo not shown) is -37.1%. Consider `S=c1[nH]nc(Cc2noc3ccccc23)n1-c1ccccc1`, for which the “hERG current change (%, negative = inhibition) at 10uM” value stood at 26.3%.

`C=CCN(CC=C)C(=O)COn1nnc2ccc(S(=O)(=O)N3CCOCC3)cc21`: the “hERG current change (%, negative = inhibition) at 10uM” value was -4.71%. The figure for `Cc1ccc2occ(/C=N/NC(=O)[C@@H](N)Cc3ccccc3)c(=O)c2c1.Cl` is -22.5%; for `COC(=O)CCc1sc(NC2CCCCC2)nc1-c1ccc(OC)cc1` it is 8.55%.
